In paper PMC9572397, “Garcinia cambogia Phenolics as Potent Anti-COVID-19 Agents: Phytochemical Profiling, Biological Activities, and Molecular Docking” (Plants, 2022):
Where two headings read alike, the source gives them in different places.

Key:
[1] = test system: Human Coronavirus (COVID-19)
[2] = test system: Human Coronavirus (COVID-19); test: microbe, parasite or virus in culture; settings: unidentified human coronavirus; for log reduction at 1 µM / log reduction at 10 µM: read-out: Log Difference
[3] = read-out: Reduction %, Table S3, 1 µM
[4] = read-out: Reduction %, Table S3, 10 µM
[5] = read-out: Reduction %, Table S4

For C[C@@H]1O[C@@H](O[C@H]2[C@H](Oc3cc(O)c4c(c3)O[C@H](c3ccc(O)cc3)CC4=O)O[C@H](CO)[C@@H](O)[C@@H]2O)[C@H](O)[C@H](O)[C@H]1O [Compound 5, naringin], the “Viral Titer IU/ml” value ([1]; Table S3, 1 µM) was 135906.3252 IU/ml, the “Viral Titer Log” value ([1]; Table S3, 1 µM) was 5.133 and the “Viral Titer IU/ml” value ([1]; Table S3, 10 µM) was 36035.25597 IU/ml. The “Viral Titer Log” value ([1]; Table S3, 10 µM) was 4.557, the Log diff ([1]; Table S4, 0.001 µM) was -0.1056 and the “Viral Titer IU/ml” value ([1]; Table S4, 0.001 µM) was 1034210.374 IU/ml. For the same compound, the “Viral Titer Log” value ([1]; Table S4, 0.001 µM) was 6.015, the Log diff ([1]; Table S4, 0.01 µM) was -0.2354 and the “Viral Titer IU/ml” value ([1]; Table S4, 0.01 µM) was 767040.3613 IU/ml. For the same compound, the “Viral Titer Log” value ([1]; Table S4, 0.01 µM) was 5.885, the Log diff ([1]; Table S4, 0.1 µM) was -0.6248 and the “Viral Titer IU/ml” value ([1]; Table S4, 0.1 µM) was 312929.2783 IU/ml. The “Viral Titer Log” value ([1]; Table S4, 0.1 µM) was 5.495, the Log diff ([1]; Table S4, 1 µM) was -0.987 and the “Viral Titer IU/ml” value ([1]; Table S4, 1 µM) was 135906.3252 IU/ml. The “Viral Titer Log” value ([1]; Table S4, 1 µM) was 5.133, the Log diff ([1]; Table S4, 10 µM) was -1.564 and the “Viral Titer IU/ml” value ([1]; Table S4, 10 µM) was 36035.25597 IU/ml. The “Viral Titer Log” value ([1]; Table S4, 10 µM) was 4.557, the “inhibition activity of COVID-19 (in words)” value ([1]; two concentrations (1 mM and 10 μM), compared to the remdesivir positive standard) was “potent inhibition activity” and the inhibition at 1 µM ([2]; Table S3, 1 µM) was 91.4%. It also gave an inhibition at 10 µM ([2]; Table S3, 10 µM) of 97.7%, an inhibition at 0.001 µM ([2]; Table S4) of 21.6% and an inhibition at 0.01 µM ([2]; Table S4) of 41.8%. For the same compound, the inhibition at 0.1 µM ([2]; Table S4) was 76.3%, the inhibition at 1 µM ([2]; Table S4, 1 µM) was 89.7% and the inhibition at 10 µM ([2]; Table S4, 10 µM) was 97.3%. It also gave an EC50 ([2]; Table S4, Conc. column in µM) of 0.017 µM, a log reduction at 1 µM [2] of 1.07 and a log reduction at 10 µM [2] of 1.64. The inhibition at 1 µM [2, 3] was 17.2%, the inhibition at 10 µM [2, 4] was 26.5% and the inhibition at 0.001 µM [2, 5] was 1.73%. For the same compound, the inhibition at 0.01 µM [2, 5] was 3.85%, the inhibition at 0.1 µM [2, 5] was 10.2% and the inhibition at 1 µM ([2]; read-out: Reduction %, Table S4, 1 µM) was 16.1%. For the same compound, the inhibition at 10 µM ([2]; read-out: Reduction %, Table S4, 10 µM) was 25.5% and the EC50 ([2]; serial concentration 10, 1, 0.1, 0.01, 0.001 μM) was 0.0169 µM.

O=c1cc(-c2ccc(O)cc2)oc2c([C@@H]3O[C@H](CO)[C@@H](O)[C@H](O)[C@H]3O)c(O)cc(O)c12 [Compound 3, vitexin] was tested, and the “Viral Titer IU/ml” value ([1]; Table S3, 1 µM) was 1256387.904 IU/ml, the “Viral Titer Log” value ([1]; Table S3, 1 µM) was 6.099 and the “Viral Titer IU/ml” value ([1]; Table S3, 10 µM) was 691102.3995 IU/ml. For the same compound, the “Viral Titer Log” value ([1]; Table S3, 10 µM) was 5.84, the inhibition at 1 µM [2] was 20.5% and the inhibition at 10 µM [2] was 56.3%. It also gave a log reduction at 1 µM [2] of 0.0996, a log reduction at 10 µM [2] of 0.359 and an inhibition at 1 µM ([2]; read-out: Reduction %) of 1.61%. The inhibition at 10 µM ([2]; read-out: Reduction %) was 5.79%.

O=C(O)/C=C/c1ccc(O)cc1 [Compound 7, p-coumaric acid] was tested, and the “Viral Titer IU/ml” value ([1]; Table S3, 1 µM) was 439893.1485 IU/ml, the “Viral Titer Log” value ([1]; Table S3, 1 µM) was 5.643 and the “Viral Titer IU/ml” value ([1]; Table S3, 10 µM) was 151891.6408 IU/ml. The “Viral Titer Log” value ([1]; Table S3, 10 µM) was 5.182, the inhibition at 1 µM ([2]; Table S3, 1 µM) was 72.2% and the inhibition at 10 µM ([2]; Table S3, 10 µM) was 90.4%. For the same compound, the log reduction at 1 µM [2] was 0.555, the log reduction at 10 µM [2] was 1.02 and the inhibition at 1 µM [2, 3] was 8.96%. It also gave an inhibition at 10 µM [2, 4] of 16.4%.
